First the molecules themselves.
B1: chrX:132781199:132781200:+_ENSMUSG00000042712_ENSMUST00000048687|mus_mus|FALSE|FALSE (ssRNA)
RNA: GGGAGUUCUACAGUCCGACGAUCAUGAAAAGAAAGCUAGAUCGCAAUGGUAACAUCAGAUAAAAGGGAAAGCAAGCCAAGCUACAUUAAAUAGGGGUAAGGAUGGCUUCGGUUAGCCUUCCAACGCGUCACUAUAAGUUUGUUCAACAGAGGAUUGAGCAUCA
B2: chr18:47008509:47008510:-_ENSG00000177576_ENST00000318240|hu_hu|FALSE|FALSE (ssRNA)
RNA: GGGAGUUCUACAGUCCGACGAUCCUGGCACAAACCUUCUAUUUAAUCAUAUUAUUCAAACAGCAAUAACAGAAAUGAAAGCUACAUUAACGAAAAAGGAACUUAGGAAUGAGGUCAUUAAAUAUAACUAACUACAUUUUAAAUCAACAGAGGAUUGAGCAUCA
B3: chrX:140365796:140365797:-_ENSMUSG00000031285_ENSMUST00000033642|mus_mus|mus_mus_mus_hu_False|1_18 (ssRNA)
RNA: GGGAGUUCUACAGUCCGACGAUCCUUCUCAUUACUCAGUGCCUGCAAGGUUCUGGUUCGGUAGAAGCUACAGUGGGCGCUGUGAGUGGGGCUAGGCAACCCAUUCAUCCGGGAGCCUCUCAUAUUUCUGGAUGUCUUGUCUCGCAACAGAGGAUUGAGCAUCA
B4: chr8:86505109:86505110:+_ENSMUSG00000005469_ENSMUST00000005606|mus_hu|FALSE|FALSE (ssRNA)
RNA: GGGAGUUCUACAGUCCGACGAUCCUUGUGUUUCACCAGCAUCACCCGCCCGAAGGAGCCCGUGCCGAGGGUCUUGAUUCGUUCAAACUGAUCCAAGUGGGCUGUGUUCUGAGCGGGACUUUCCCAUUUUUUAAGAAAAUCUUCCAACAGAGGAUUGAGCAUCA
B5: chr2:155211079:155211080:+_ENSMUSG00000038375_ENSMUST00000043237|mus_hu|FALSE|FALSE (ssRNA)
RNA: GGGAGUUCUACAGUCCGACGAUCGAGGCUGGAGAGGCGCUGGAACAUGGUGGGGGGCGAAGCGCCUCACGGGGGCGCCCUAUGGCAGUGCAAAAACCUCUCUGUGAUCCAAACAGCUGGGAGGCAGCGAUUUUAUUGGACUCUCAACAGAGGAUUGAGCAUCA
B6: chr7:44244176:44244177:+_ENSG00000106636_ENST00000223369|hu_mus|hu_hu_hu_mus_False|58_88 (ssRNA)
RNA: GGGAGUUCUACAGUCCGACGAUCACUGUCGCUCCGGACGUAGACAUGGCACAGAUACUCUUGUUCUUUGACAGAAGCUCUAGUGCCUUUCCCCGAGCGUUCCACAAUCAGUUGACUUGUAAAGGUCAUGAAUUCCUGCACACUCAACAGAGGAUUGAGCAUCA
B7: 160265871_160267184_2501_CDS_ENSG00000122218_ENST00000241704|human|control|control (ssRNA)
RNA: GGGAGUUCUACAGUCCGACGAUCUGUCUCCUUUAGGCUCUCAGCUUCUUCAUCUAAGCCAUGGGUAGCAGCUGUGAGAUAGGCCAGGGACUUCUGUCCACAGUUCUUCAGGAUCCGCACACGCUCUGACACAUCACCCAGGUACAACAGAGGAUUGAGCAUCA
B8: 32524532_32524652_2074_3pUTR_ENSG00000091317_ENST00000205636|human|control|control (ssRNA)
RNA: GGGAGUUCUACAGUCCGACGAUCUAAAAAUAAUCAUAUGCCAACAGGGGAAUUGAACCACUUUCUAAAUCAUAGUAUGAACUCAUCUCUUCAGAUACUUGGUAAGUGGUCAAAGCUUGUUUUUAUAAUUACUUUCACUGUCUUCAACAGAGGAUUGAGCAUCA
B9: chr3:37053522:37053523:+_ENSG00000076242_ENST00000455445|hu_hu|motif|central (ssRNA)
RNA: GGGAGUUCUACAGUCCGACGAUCCAAAGAUGGAGCGAAUAUUGUCCACGGUUGAGGCAUUGGGUAGUGUCCUAACAUCAGCGGCUGUCUCUCCUUGUUUUUUAACUGAGAAACUAAUGCCUGCAUUGUGUACUGAAUACCUGCCAACAGAGGAUUGAGCAUCA
B10: 10122626_10122746_1606_CDS_ENSMUSG00000024290_ENSMUST00000067947|mouse|control|control (ssRNA)
RNA: GGGAGUUCUACAGUCCGACGAUCAAAUCCUACAAAAGGUAGCUGAUUGCCAACAAAAGCUUUUGGAAUAGGAAAUGUUUCUUCAUCUCCUUUAUCUUCUUCUAAGUCAUCAAAAUUACUAGUAUCAAUGUCACUACUUAAAUCCAACAGAGGAUUGAGCAUCA
B11: 26910399_26917107_1951_CDS_ENSG00000137055_ENST00000397292|human|control|control (ssRNA)
RNA: GGGAGUUCUACAGUCCGACGAUCCAUUGUUUUAGAUGCAGCUGAUCGGUAGGCACUAUUCCCUGUAAAUGGAUCAACUCCGGCCAUGGUAGUUCCCAUACUUGCAGAACCUGGUACAUAACGACCAGCACCUGUAAAAGGAUCCAACAGAGGAUUGAGCAUCA
B12: chr11:20202655:20202656:-_ENSMUSG00000020142_ENSMUST00000109594|mus_mus|FALSE|FALSE (ssRNA)
RNA: GGGAGUUCUACAGUCCGACGAUCAUAGACAUAAUUUGUAGUUUAGUUCCCCUUUAUCCAAACUCAGGUUUGCUUGGAGCUAAAAGCACACACAUACACACACACACUUGAUACAUAAAGUAUAUGUAAAUACAGAGGAAAAGACAACAGAGGAUUGAGCAUCA
B13: chr5:145543945:145543946:-_ENSG00000133706_ENST00000545646|hu_hu|hu_hu_hu_mus_True|8_58 (ssRNA)
RNA: GGGAGUUCUACAGUCCGACGAUCCUGAACGGCCAGUGGUGGGAAAUAAUCAAGCCAGUGCUCUGCUUCAGAAAACUUUACUAUCUCGUCAUCAGAGAGCCCAAGGGAUUUCAUAAUGUCCCACUGGUAUUUAGAAGAUCCUGCCAACAGAGGAUUGAGCAUCA
B14: chr11:95532483:95532484:+_ENSG00000166037_ENST00000540830|hu_hu|FALSE|FALSE (ssRNA)
RNA: GGGAGUUCUACAGUCCGACGAUCGCUGUUGCUUUCUGGAUAGGCAAGUGUAGGCUUACUUGGGGAGCGUCGUAGAUCACUAUUAAGGAAAGGCUUAUCCGAAGGAUAUACUACAUAUGGAGAUGAAGAAUGCCGAACCAUGCUCAACAGAGGAUUGAGCAUCA

The other results are listed elsewhere or left out.

In this experiment the target is T1, UNK ZnF1-3 (human, UniProt Q9C0B0 31-174).
T1 sequence: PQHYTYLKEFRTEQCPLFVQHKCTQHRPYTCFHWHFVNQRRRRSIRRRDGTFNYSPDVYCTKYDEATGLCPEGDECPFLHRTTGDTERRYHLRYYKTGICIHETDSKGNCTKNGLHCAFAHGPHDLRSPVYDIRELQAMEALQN
In words: nsRBNS (natural sequence RNA bind-n-seq); RBNS binding buffer (assumed for nsRBNS): 25 mM Tris pH 7.5, 150 mM KCl, 3 mM MgCl2, 0.01% Triton X-100, 500 ug/ml BSA, 20 U/ml SUPERase-In, 4 C; UNK is unkempt and MSI1 is Musashi-1; names of the RNAs are library labels; protein concentration not given here; high values mean tight binding.
Molecule B1 registered a binding signal of 1.25 enrichment R. In turn, B2 returned a binding signal of 1.44 enrichment R. On to B3, for which the binding signal stood at 0.698 enrichment R. With B4 the figure was 0.625 enrichment R; with B5, 1.15 enrichment R. For B6, the binding signal came to 0.505 enrichment R. Molecule B7 registered a binding signal of 0.982 enrichment R.

B8 came in with a binding signal of 2.28 enrichment R.

Molecule B9 returned a binding signal of 0.474 enrichment R. The molecule B10 yielded a binding signal of 0.794 enrichment R.

B11 displayed a binding signal of 0.617 enrichment R. B12 returned a binding signal of 0.914 enrichment R.

In the case of B13, the binding signal turned out to be 1.27 enrichment R. Turning to B14, the binding signal came out at 1.39 enrichment R.
